# Assay results as given in ChEMBL document CHEMBL4888484, “Replenishing the malaria drug discovery pipeline: Screening and hit evaluation of the MMV Hit Generation Library 1 (HGL1) against asexual blood stage Plasmodium falciparum ,using a nano luciferase reporter read-out” (2022).
# The campaign covered roughly 150,000 compounds. About 540 (0.36%) showed an effect of 50% or more. The list shows a part of the results.
# Test system: Plasmodium falciparum
# Assay: Primary screen in NF54 nanoGlo assay, in single point, at 2uM, 72h; a lower Z score goes with more inhibition
# Type: functional, Erythrocyte
# Conditions: timepoint 72 hour
Structure (SMILES),% Inhibition [%],Z score
CN(C)C(=O)c1cn[nH]c1NC(=O)CCCNC(=O)OC(C)(C)C,-7,1.28
CC(NCC(O)C(F)(F)F)C1(N2CCOCC2)CCCC1 (stereo not drawn),-6,0.77
CC(NCC1CCCOC1)c1ccccc1Cl (stereo not drawn),-1,0.09
O=C(NCc1ccccc1F)c1nnc(C(=O)Nc2ccc(F)cc2)s1,-12,1.07
Cc1noc(C)c1CCC(=O)N1CCC(S(=O)(=O)c2ccc(F)cc2)CC1,-15,1.97
CC(=O)Nc1nc2c(s1)CN(S(=O)(=O)c1cccnc1)CC2,-9,1.27
CCC1CCCCN1CC(=O)N1CCOC(C)C1 (stereo not drawn),-14,2.19
CC(C)N1CCN(C(=O)c2cnc(N)s2)C[C@@H]1C,0,0.03
CCC1(CO)CCN(c2nc3c(s2)c(C)nn3C)CC1,-13,1.67
CCNC(=O)N(Cc1nc(CC)c(Cc2ccc(OC)cc2)c(=O)[nH]1)Cc1ccco1,-5,0.45
CO[C@H]1CN(C(=O)Cc2ccc(C)cc2)C[C@@H]1O,-21,2.71
c1cc2c(cc1OCc1noc3c1CCCC3)OCO2,-11,1.31
CC(=O)NC[C@H]1CN(c2nccn3nc(C(C)(C)C)cc23)CCO1,-3,0.5
CC1(C2CCN(C(=O)c3c(Cl)cccc3Cl)CC2)OCCO1,31,-0.38
CN(CCc1noc(C(F)(F)F)n1)C(=O)c1scc2c1OCCO2,-16,3.43
CN1CCN(C[C@@H]2CN(Cc3ccc(F)c(Cl)c3F)C[C@@H]2CO)CC1,1,-0.15
CCOC(=O)N(C)C1CCN(C(=O)c2ccc(C3CCC3)cc2)CC1,-9,1.19
CC(C)(C)CC(=O)N(Cc1ccco1)Cc1cc(Cl)ccc1OS(C)(=O)=O,3,-0.47
Cc1nn(CCC(=O)c2ccc(Cl)cc2)c(C)c1Cl,-16,1.89
COCc1nc(COC)n(Cc2cccc(Cl)c2)n1,-5,0.9
CCc1cn[nH]c1[C@H]1CCCN(C(=O)c2cc(-c3c(C)nn(C)c3C)nn2C)C1,-11,2.17

Structure (SMILES),% Inhibition [%],Z score
Cc1cnc(CNC(=O)[C@H](C)c2n[nH]c(=O)c3ccccc23)cn1,-1,0.11
c1ccc(CNc2nc(-c3cnccn3)ns2)cc1,10,-1.22
COc1cccc(CNS(=O)(=O)c2ccc(-c3nnc(C4CC4)o3)s2)c1,3,-0.49
CC(C)[C@@H](C(=O)NCc1cccc(C(F)(F)F)c1)N1CCCS1(=O)=O,-4,0.83
COCCNC(=O)[C@@H]1C[C@@H](O)CN1C1CCN(C(=O)c2nccc3ccccc23)CC1,-4,0.52
CC(C)C[C@@H]1NC2(CCN(S(=O)(=O)c3cccc(Cl)c3Cl)CC2)N(Cc2cccc(C(F)(F)F)c2)C1=O,-8,1.3
CCN(C1CC1)S(=O)(=O)CCCS(=O)(=O)N(CC)C1CC1,-11,1.22
COc1ccc(NC(=O)Cn2cc(S(=O)(=O)c3ccc(OC)cc3)c(=O)c3ccc(C)nc32)cc1,-20,3.24
CC(=Cc1ccccc1)CN1CC[C@@]2(C1)NC(=O)N(C)C2=O,-1,0.22
O=C(CN1CCn2nc(CO)cc2C1)N1CCCCCC1,3,-0.35
CCC(C)C1NC2(CCN(C(=O)c3ccccc3)CC2)N(Cc2cccc(C(F)(F)F)c2)C1=O (stereo not drawn),3,-0.34
C[C@H]1C[C@@H](CO)CCN1C(=O)c1ccc(-c2ccccc2)[nH]1,-14,1.84
Cc1ncc(CNC(=O)[C@@H]2CCCN2C(=O)OCc2ccccc2)o1,-10,1.3
CCN1CC[C@H](NC(=O)N(C)Cc2ccc(-c3ccccc3)cc2)C1,3,-0.43
OCc1cc2n(n1)CCN(Cc1c[nH]nc1C1CCCCC1)C2,-1,0.13
Cc1ccc(CNC(=O)c2cc(C)on2)c(N(C)C)c1,-1,0.14
CN1CC2(CCN(C(=O)Nc3ccccc3F)CC2)C[C@H]1C(=O)N1CCOCC1,-5,0.6
Cc1cnn(-c2ccncc2NS(=O)(=O)c2cncc(F)c2)c1,6,-0.54
O=C1C[C@]2(NC(=O)Cc3ccc(-n4cnnc4)cc3)CCCC[C@@H]2N1,-5,0.68
COC(=O)c1ccccc1NC(=O)C[C@@H]1Nc2cccc3cccc(c23)NC1=O,-5,0.52
CC(C)c1nnc(NC(=O)C2CCCC2)s1,0,-0.07

Structure (SMILES),% Inhibition [%],Z score
Cc1ccc(CN(C)C(=O)NCCc2nc(C3CC3)no2)o1,-6,1.2
COc1ccc(NC(=O)CCC(F)(F)F)cc1O,5,-0.65
CN(Cc1ccncc1)C(=O)C1(Cc2ccc(F)cc2)CCOCC1,-1,0.1
CC(C)CN1C[C@@H](C(=O)NCc2cnc3cnccn23)CCC1=O,-6,0.9
Cc1cncc(NCc2c(C(C)C)nn(C)c2N2CCOCC2)c1,-4,0.66
CC(=O)NCCC1=CCCN(CCc2cccc3ccccc23)C1,-16,1.86
O=C(c1nnn(-c2ccccc2Cl)c1-c1cccnc1)N1CCN(c2ccccc2)CC1,-8,0.9
CC(=O)N1CCOC1CC(C)CCC=C(C)C (stereo not drawn),3,-0.5
CN(C[C@H]1CCCN2CCCC[C@@H]12)C(=O)Cn1nc(-c2ccccc2F)ccc1=O,-3,0.47
O=C1NCCN1C(=O)NC[C@H](OCCO)c1cccs1,-8,1.19
O=C(CCc1cccnc1)N1CC[C@@H](CO)[C@@H](O)C1,-2,0.52
O=C(COc1ccc(Br)cc1)Nc1ccc2c(c1)OCCCO2,-9,0.79
COc1ccccc1-c1c(C)nn(C)c1NC(=O)N[C@@H](C)Cc1cnccn1,-4,0.82
Cc1cc(C)c([C@H]2NC(=O)N(CC3(CO)COC3)C2=O)c(C)c1,-11,1.54
CS(=O)(=O)CCc1nc(C2(c3ccccc3)CC2)nn1-c1ccccc1,-9,0.87
O=C(N[C@H]1CCN(Cc2cscn2)C[C@@H]1O)c1nc2ccccn2c1F,-4,0.56
CC(C)c1ccc(CCCC(=O)NC2(C(=O)O)CCC2)cc1,4,-0.53
COc1ccccc1N1CCN(C(=O)Cn2cc(S(=O)(=O)Cc3ccccc3)c3ccccc32)CC1,-18,2.89
C=C[C@H]1OCCC[C@@H]1NC(=O)Nc1nc(C)no1,2,-0.35
COc1ccc(CC(=O)Nc2cnc(-c3cccnc3)nc2)cc1Cl,-14,1.25
CC(C)C[C@H]1CCN(c2ccnc(C(=O)N3CCOCC3)c2)C1,2,-0.16

Structure (SMILES),% Inhibition [%],Z score
CN(C)c1nsc(N2CCn3nc([C@H](O)c4ccccc4)cc3C2)n1,-8,0.74
CCn1ncnc1-c1ccc(O)c2ccccc12,-3,0.59
COc1ccc(C(=O)N2C[C@@H]3COCCN3C3(CN(Cc4cncn4C)C3)C2)cc1,-6,0.96
CN1C[C@@H](NC(=O)NCCc2cc(C(F)(F)F)ccn2)CC1=O,-12,2.22
Cc1cc(=O)c(C(=O)N2CCCC[C@@H]2CCc2ccccc2)c(C)[nH]1,-22,3.29
O=C(CCNCc1cc2ccccc2nc1N1CCCCC1)NCc1ccccc1,18,-1.56
COc1ccc2c(c1)OC(C)(C)CN(C(=O)Nc1nc(C)cs1)C2,2,-0.35
Cc1csc(NC(=O)C2CCN(C(=O)C3CC3c3ccco3)CC2)n1 (stereo not drawn),-15,2.86
O=C(c1ccncc1)N1CCc2sccc2C1,-3,0.35
Cc1c(Cl)cccc1C(=O)Nc1ccc2c(c1)CCN2C(N)=O,13,-1.64
CC[C@@H](C(=O)Nc1cc(Cl)ccc1C)N1C(=O)CCn2nc(C)cc21,-3,0.3
CCc1onc(C)c1[C@@H]1CCCN1S(=O)(=O)c1ccc(Br)cc1,-9,1.2
Cc1cccc(OC[C@H](C)NC2CCN(CC(F)F)CC2)c1,-8,0.69
O=c1[nH]cnc2c(N3CCN(CC(F)F)CC3)nccc12,-7,1.38
c1ccc(C2(c3nnc(-c4ccncc4)o3)CCOCC2)cc1,30,-4.69
CC[C@H](OC1CCCC1)C(=O)NCc1nc(-c2ccccn2)no1,-11,0.96
CC(=O)c1cc(C(=O)N(C)c2cc(Cl)ccc2C#N)ccc1C,-6,0.99
CC(C)n1cccc1C(=O)NC[C@H]1CCN(C2CCCCC2)C1,11,-1.41
CON(C)C(=O)[C@@H](NS(=O)(=O)c1ccccc1F)C(C)C,0,-0.01
Cc1noc(C)c1CN1CCC(Cn2ccnc2)CC1,-9,1.82
COc1ccc(CN(C(=O)c2cccc(Cl)c2)C2(C(=O)Nc3ccccc3)CCCCC2)cc1,7,-1.29
